The list shows a part of the results.
B1: chr1:205790044:205790145:-|3pUTR|ENSG00000133065|msi1|total|mutant (ssRNA)
RNA: GGGAGUUCUACAGUCCGACGAUCAGAUUCUUCUGCCUCUUUCUCCUUUCCAGACCCCUACUCUGUGCAGUGCUGACCACAGCCCGAGCCACCGCCCCAUUGCUCAACCAGUAUUUAUUUCCCUAAACGACCCUUCCUCACAUUCAACAGAGGAUUGAGCAUCA
B2: chr12:32745429:32745530:+|3pUTR|ENSG00000087470|msi1|FALSE|unique (ssRNA)
RNA: GGGAGUUCUACAGUCCGACGAUCCAACGGAAAGAGAAAAGCCUUCCUUUGUUGGCCCUUAAACUGAGUCAAGAUCUGAAAUGUAGAGAUGAUCUCUGACGAUACCUGUAUGUUCUUAUUGUGUAAAUAAAAUUGCUGGUAUGACAACAGAGGAUUGAGCAUCA
B3: ENSG00000107863:be:win_851|CDS|ENSG00000107863|bound_else_gene|NA|bound_elsewhere_windowed (ssRNA)
RNA: GGGAGUUCUACAGUCCGACGAUCUGUUAUCCAAUAGAAACAACCAUACAGGUCCUUCACAUAGAACUGAAGAAGUGAGGUAUGGCGUGAGUGAGCAGACCUCUUUAAAAACAGUGUCAAGAACCACAUCACCACCAUUAUCAACAACAGAGGAUUGAGCAUCA
B4: chr1:114567884:114567985:-|3pUTR|ENSG00000116752|msi1|total|mutant (ssRNA)
RNA: GGGAGUUCUACAGUCCGACGAUCUGGUAAUUCUAUUUGUAUAUCUCAACAGAAUUAAAAUGUCCCGCUUGGUGGUAUUUUUACCGCCAUAAAAGAAAAUCUUCCGGCUUUCAAAAUAAGGAUGACUUCCGAAUAAUAUUGUGUCAACAGAGGAUUGAGCAUCA
B5: chr12:123662440:123662541:+|3pUTR|ENSG00000111358|unk|FALSE|unique (ssRNA)
RNA: GGGAGUUCUACAGUCCGACGAUCAAUGGAAAUCACAAUUUUAAGUCUAGGAAAUAAAGUAUUAUAUAUACUUUCAAACAAGCUAGCAAGGCUUUUAUUAUUACUUUUUUAUUUGAAAUAUCUUAUAUAUUUGGUUAGUUCUGUCAACAGAGGAUUGAGCAUCA
B6: chr11:27368498:27368690:-|CDS|ENSG00000205213|msi1|total|mutant (ssRNA)
RNA: GGGAGUUCUACAGUCCGACGAUCACCCCUUUGUUUGCCAUUUCCUACAGGUGAAACGCCAUCAUCCGGAUUCACUGUAACGUCCGUGCUAUUAAACUCACCCGCAUUUUUAUUAAUGGCCGUUAUCUACACUAAACUAUACUGCAACAGAGGAUUGAGCAUCA
B7: chr10:51697484:51697585:-|3pUTR|ENSG00000177613|unk|FALSE|unique (ssRNA)
RNA: GGGAGUUCUACAGUCCGACGAUCAAUGGGUGCAAAAAGCUGACUUCUGUAUCCCCACACUUGGAUUAGGGUUUCCCUCCUCCUAGAACCUAAUCUUAUUUUUUGUUCUUUUUCUUUCUUUCUGUUUUCCUUUUUUUUUUAAUUCAACAGAGGAUUGAGCAUCA
B8: ENSG00000150403:stop:overlap|stop_codon|ENSG00000150403|stop_codon|NA|stop_codon (ssRNA)
RNA: GGGAGUUCUACAGUCCGACGAUCUGUCCAGGUUCCUCAUGGGCAGUGCUCGGGGUGACAAAGAAGGCAACAGAACAGCCCUCUAGCAGAGCGUCAGUGCAGUCGUGUUAUCCCGGCUUUUACAGAAUAUUCUUGUCCUAUUUUCAACAGAGGAUUGAGCAUCA
B9: chr20:59325757:59325866:+|3pUTR|ENSG00000124205|unk|FALSE|unique (ssRNA)
RNA: GGGAGUUCUACAGUCCGACGAUCUUAUGUGGAUCUGUUCAAAGUAGUCACUGUAUAUACGUAUAGAGAGGUAGAUAGGUAGGUAGAUUUUAAAUUGCAUUCUGAAUACAAACUCAUACUCCUUAGAGCUUGAAUUACAUUUUUCAACAGAGGAUUGAGCAUCA
B10: chr2:73268725:73269630:-|CDS|ENSG00000163013|control|control|control (ssRNA)
RNA: GGGAGUUCUACAGUCCGACGAUCCGAGAAGGAGGAGCUGGAGGAGCGCGCGUCUGAGCUCUCCCGCCAGGUGGACGUGAGCGUAGAGCUGCUGGCCUCACUCAAGCAGGACCUGGUGCACAAGGAACAGGAGCUGAGCCGCAACAACAGAGGAUUGAGCAUCA
B11: ENSG00000198589:be:win_501|CDS|ENSG00000198589|bound_else_gene|NA|bound_elsewhere_windowed (ssRNA)
RNA: GGGAGUUCUACAGUCCGACGAUCCGAGCUAAAGCUUUUCUUCAGUAAACUUCAAGGAGAUAAAGGACGAUGGCCUCCACAUGCUGGGAAGUUGCUGUCUGUGUUAAAGCAUAUGCCUCAGAAGUAUGGUCCUGAUGCCUUUUUCAACAGAGGAUUGAGCAUCA
B12: chr8:74853834:74853946:+|3pUTR|ENSG00000137558|unk|total|mutant (ssRNA)
RNA: GGGAGUUCUACAGUCCGACGAUCAAGUGCUUUUUUUUUUCUGAAUUAAUCCGGUAUUGGUAAAAUAUAUUUUUAAAUUCCGUCCGCUUUAUAAACACAAUCCGAAUUACAAUUAAUUAACAGAGGUAUAAUUGUCUCACUUUCCAACAGAGGAUUGAGCAUCA
B13: ENSG00000136451:be:win_2401|3pUTR|ENSG00000136451|bound_else_gene|NA|bound_elsewhere_windowed (ssRNA)
RNA: GGGAGUUCUACAGUCCGACGAUCAUUCCUAUUUAGGAGCCAAGGAGUACUUUGGAACAGUACAAAUAUAUUGCUUUAAAUUGGAAGACGCUGGAGGCACUGGGAUGUGAUAUGCCCCUCUCUCUCCCAAUCAGAGCCUGUUGACAACAGAGGAUUGAGCAUCA
B14: chr1:213241816:213241921:+|CDS|ENSG00000136643|unk|FALSE|unique (ssRNA)
RNA: GGGAGUUCUACAGUCCGACGAUCGAGAAACACUAUGCACAGGAGGAUCCCAGGAUGUUAUUUGUAGCAGCUGUUGAUCAUAGUAGUUCAGGAGAUAUGUCUUUGUUACCCAGCUCAGAUCCUAAGUUUCAAGGACUUGGAGUGCAACAGAGGAUUGAGCAUCA

These binders were tested against MSI1 full-length (mouse, UniProt Q61474 1-362) (assay: nsRBNS (natural sequence RNA bind-n-seq); RBNS binding buffer (assumed for nsRBNS): 25 mM Tris pH 7.5, 150 mM KCl, 3 mM MgCl2, 0.01% Triton X-100, 500 ug/ml BSA, 20 U/ml SUPERase-In, 4 C; UNK is unkempt and MSI1 is Musashi-1; names of the RNAs are library labels; protein concentration not given here; high values mean tight binding).
UniProt Q61474, sequence (Q61474 whole entry): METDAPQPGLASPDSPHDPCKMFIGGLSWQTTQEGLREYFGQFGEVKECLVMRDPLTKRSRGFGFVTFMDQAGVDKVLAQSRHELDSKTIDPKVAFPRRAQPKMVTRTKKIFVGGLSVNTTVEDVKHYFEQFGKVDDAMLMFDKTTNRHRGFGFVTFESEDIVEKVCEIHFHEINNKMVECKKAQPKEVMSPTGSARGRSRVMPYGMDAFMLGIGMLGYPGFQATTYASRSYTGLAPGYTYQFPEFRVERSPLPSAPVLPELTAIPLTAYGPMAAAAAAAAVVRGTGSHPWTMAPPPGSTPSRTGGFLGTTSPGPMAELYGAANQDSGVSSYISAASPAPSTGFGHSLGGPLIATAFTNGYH

Binder	binding signal
B1	1.25 enrichment R
B2	0.326 enrichment R
B3	0.875 enrichment R
B4	0.304 enrichment R
B5	12.8 enrichment R
B6	0.49 enrichment R
B7	0.793 enrichment R
B8	0.829 enrichment R
B9	20.2 enrichment R
B10	0.553 enrichment R
B11	0.338 enrichment R
B12	1.6 enrichment R
B13	0.396 enrichment R
B14	0.932 enrichment R
